From article PMC5681660, “Reduced hepatitis B and D viral entry using clinically applied drugs as novel inhibitors of the bile acid transporter NTCP” (Scientific Reports, 2017)

Assays:
human NTCP [1] = target: T1, human NTCP (Homo sapiens, UniProt Q14973); experiment: Screening fluorescent competitive Myrcludex B-FITC binding assay (96-well, 10 µM drug); settings: for %NTCP binding: Myrcludex B-FITC binding, 10 µM drug; for remaining activity at 10 µM: 0.5 h
T1 sequence (Q14973 1-349): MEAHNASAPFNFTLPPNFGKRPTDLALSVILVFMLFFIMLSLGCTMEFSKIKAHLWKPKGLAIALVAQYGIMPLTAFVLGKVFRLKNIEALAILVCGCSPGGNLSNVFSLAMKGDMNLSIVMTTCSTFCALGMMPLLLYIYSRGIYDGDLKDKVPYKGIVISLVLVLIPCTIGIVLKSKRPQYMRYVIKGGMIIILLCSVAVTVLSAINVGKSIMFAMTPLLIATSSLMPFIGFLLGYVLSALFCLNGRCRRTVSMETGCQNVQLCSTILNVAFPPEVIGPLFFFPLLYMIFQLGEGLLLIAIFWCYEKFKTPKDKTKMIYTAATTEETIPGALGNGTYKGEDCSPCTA

human NTCP [2] = target: T1, human NTCP; experiment: Screening taurocholate uptake assay (96-well, [14C]taurocholate, 10 µM drug); settings: for remaining activity at 10 µM: 10 min, read-out: %NTCP activity
[3] = Prestwick library screen, [14C]taurocholate uptake, 10 µM drug
[4] = screen, 10 µM drug, [14C]taurocholate uptake
[5] = read-out: %NTCP binding, screen, 10 µM drug, Myrcludex B-FITC binding

| Compound | remaining activity at 10 µM (human NTCP [1]; read-out: %NTCP binding) | remaining activity at 10 µM (human NTCP [2]) | other results |
| --- | --- | --- | --- |
| Cc1cc(C)nc([N-]S(=O)(=O)c2ccc(N)cc2)n1.[Na+] [Sulfamethazine sodium salt] | – | – | %NTCP binding (human NTCP [1]; Prestwick library screen): 92.5333%; %NTCP activity (human NTCP [2]; [3]): 72.166% |
| Cc1onc(-c2ccccc2)c1-c1ccc(S(N)(=O)=O)cc1 [Valdecoxib] | 54.2% | 107% | – |
| CCCN(CCC)S(=O)(=O)c1ccc(C(=O)O)cc1 [Probenecid] | 82.3% | 81.9% | – |
| CN(C)CC/C=C1/c2ccccc2COc2ccc(CC(=O)O)cc21 [Olopatadine hydrochloride] | 99.5% | 118% | – |
| COc1ccc(C[C@@H](C)NC[C@H](O)c2ccc(O)c(NC=O)c2)cc1.COc1ccc(C[C@@H](C)NC[C@H](O)c2ccc(O)c(NC=O)c2)cc1.O=C(O)/C=C/C(=O)O [Formoterol fumarate] | – | – | %NTCP binding (human NTCP [1]; Prestwick library screen): 87.3803%; %NTCP activity (human NTCP [2]): 118.412% |
| COc1ccc2[nH]cc(CCNC(C)=O)c2c1 [Melatonin] | 76.6% | 63.6% | – |
| Cc1cn([C@H]2C=C[C@@H](CO)O2)c(=O)[nH]c1=O [Stavudine] | 83.2% | 75.9% | – |
| NC(=O)OCC(COC(N)=O)c1ccccc1 [Felbamate] | 61.2% | 88.1% | – |
| CC(=O)OC[C@H]1O[C@@H]([S-])[C@H](OC(C)=O)[C@@H](OC(C)=O)[C@@H]1OC(C)=O.CCP(CC)CC.[Au+] [Auranofin] | – | – | %NTCP binding (human NTCP [1]; Prestwick library screen): 109.797%; %NTCP activity (human NTCP [2]): 73.6201% |
| Cc1ncc([N+](=O)[O-])n1CC(C)O (centres unmarked) [Secnidazole] | 84.8% | 97.5% | – |
| COc1ccc(C(=O)NCc2cccnc2)cc1C(=O)NCc1cccnc1.O [Picotamide monohydrate] | – | – | %NTCP binding (human NTCP [1]; Prestwick library screen): 89.8526%; %NTCP activity (human NTCP [2]; [3]): 66.447% |
| CC(N)C(O)c1ccccc1 (centres unmarked) [Phenylpropanolamine hydrochloride] | 65.5% | 57.8% | – |
| NS(=O)(=O)c1cc2c(cc1Cl)NC(CC1CCCC1)NS2(=O)=O (centres unmarked) [Cyclopenthiazide] | 119% | 79.4% | – |
| CC(=O)[C@H]1CC[C@H]2[C@@H]3C[C@H](C)C4=CC(=O)CC[C@]4(C)[C@H]3[C@@H](O)C[C@]12C [Medrysone] | 107% | 77.4% | – |
| CCn1cc(C(=O)O)c(=O)c2cnc(N3CCNCC3)nc21 [Pipemidic acid] | 119% | 54.3% | – |
| COc1ccc(C(Cl)=C(c2ccc(OC)cc2)c2ccc(OC)cc2)cc1 [Chlorotrianisene] | 92.8% | 92.9% | – |
| CCC[C@H](N[C@@H](C)C(=O)N1[C@H](C(=O)O)C[C@@H]2CCCC[C@@H]21)C(=O)OCC [Perindopril] | 104% | 82.8% | – |
| OCc1cc(C(O)CNCCCCCCOCCCCc2ccccc2)ccc1O (centres unmarked) [Salmeterol] | 78.3% | 63.6% | – |
| Cc1ccnc2c1NC(=O)c1cccnc1N2C1CC1 [Nevirapine] | 102% | 77.2% | – |
| CCN[C@H]1CN(CCCOC)S(=O)(=O)c2sc(S(N)(=O)=O)cc21 [Brinzolamide] | 61% | 72.6% | – |
| CCN(CCCc1ccccc1)CCCc1ccccc1.O=C(O)CC(O)(CC(=O)O)C(=O)O [Alverine citrate salt] | – | – | %NTCP binding (human NTCP [1]; screen): 73.4904%; %NTCP activity (human NTCP [2]; [4]): 58.4781% |
| CNC(=O)c1c(I)c(C(=O)NCC(=O)Nc2c(I)c(C(=O)O)c(I)c(C(=O)NCCO)c2I)c(I)c(N(C)C(C)=O)c1I [Ioxaglic acid] | 122% | 55.5% | – |
| CC(=O)Oc1cc(C(C)C)c(OCCN(C)C)cc1C.Cl [Moxisylyte hydrochoride] | – | – | %NTCP binding (human NTCP [1]; screen): 110.76%; %NTCP activity (human NTCP [2]): 129.723% |
| CC[C@H]1OC(=O)C[C@@H](O)[C@H](C)[C@@H](O[C@@H]2O[C@H](C)[C@@H](O[C@H]3C[C@@](C)(O)[C@@H](O)[C@H](C)O3)[C@H](N(C)C)[C@H]2O)[C@@H](CC=O)C[C@@H](C)C(=O)/C=C/C(C)=C/[C@@H]1CO[C@@H]1O[C@H](C)[C@@H](O)[C@@H](OC)[C@H]1OC [Tylosin] | 88.5% | 130% | – |
| CC(=O)c1ccc2c(c1)N(CCCN1CCC(CCO)CC1)c1ccccc1S2 [Piperacetazine] | 90.1% | 114% | – |
| NC(=O)c1cccnc1 [Nicotinamide] | 80.1% | 140% | – |

| Compound | remaining activity at 10 µM (human NTCP [1]; read-out: %NTCP binding) | remaining activity at 10 µM (human NTCP [2]) | other results |
| --- | --- | --- | --- |
| C[C@]12CCC(=O)C=C1C=C[C@@H]1[C@@H]2CC[C@@]2(C)[C@H]1CC[C@@]2(O)CCC(=O)[O-].[K+] [Canrenoic acid potassium salt] | – | – | %NTCP binding (human NTCP [1]; Prestwick library screen): 87.9445%; %NTCP activity (human NTCP [2]; [3]): 87.765% |
| CC(C)C[C@H](CN)CC(=O)O [Pregabalin] | – | 111% | remaining activity at 10 µM (human NTCP [1]; read-out: %NTCP binding, Prestwick library screen, 10 µM drug, Myrcludex B-FITC binding): 54.9% |
| C[C@@H](c1ncncc1F)[C@](O)(Cn1cncn1)c1ccc(F)cc1F [Voriconazole] | 76.2% | 118% | – |
| CC(Cc1ccc(O)cc1)NCC(O)c1cc(O)cc(O)c1 (centres unmarked) [Fenoterol hydrobromide] | – | 59.7% | remaining activity at 10 µM (human NTCP [1]; [5]): 68.4% |
| O=C(Nc1ccccc1)OCC(CN1CCCCC1)OC(=O)Nc1ccccc1 (centres unmarked) [Diperodon hydrochloride] | 59.4% | 125% | – |
| Cc1oncc1C(=O)Nc1ccc(C(F)(F)F)cc1 [Leflunomide] | 97.9% | 92.5% | – |
| CCCNC(C)C(=O)Nc1ccccc1C (centres unmarked) [Prilocaine hydrochloride] | 52.4% | 128% | – |
| Cc1c(N(C)CS(=O)(=O)[O-])c(=O)n(-c2ccccc2)n1C.[Na+] [Dipyrone] | – | – | %NTCP binding (human NTCP [1]; screen): 64.6399%; %NTCP activity (human NTCP [2]; [4]): 118.042% |
| NCCCCCC(=O)O [Aminocaproic acid] | 79.9% | 80.2% | – |
| CC(=O)O[C@]1(C(C)=O)CC[C@H]2[C@@H]3C=C(C)C4=CC(=O)CC[C@]4(C)[C@H]3CC[C@@]21C [Megestrol acetate] | 82.9% | 109% | – |
| CCCC1C(=O)N2C(N(C)C)=Nc3ccc(C)cc3N2C1=O (centres unmarked) [Azapropazone] | 81.2% | 75.8% | – |
| CCCCC(O)c1ccccc1 (centres unmarked) [Fenipentol] | – | – | %NTCP binding (human NTCP [1]; screen): 79.6525%; %NTCP activity (human NTCP [2]): 94.6657% |
| C[C@H]1O[C@H](O[C@H]2[C@H](O)[C@@H](O)[C@@H](O[C@H]3[C@H](O)[C@@H](O)C(O)O[C@@H]3CO)O[C@@H]2CO)[C@H](O)[C@@H](O)[C@@H]1N[C@H]1C=C(CO)[C@@H](O)[C@H](O)[C@H]1O (some centres unmarked) [Acarbose] | 80.8% | 138% | – |
| NS(=O)(=O)c1cc2c(cc1Cl)NC(C(Cl)Cl)NS2(=O)=O (centres unmarked) [Trichlormethiazide] | 109% | 111% | – |
| CC1Cc2ccccc2N1NC(=O)c1ccc(Cl)c(S(N)(=O)=O)c1 (centres unmarked) [Indapamide] | 55.7% | 130% | – |
| Cc1scc2c1N(C(=O)CN1CCN(C)CC1)c1ccccc1NC2=O [Telenzepine dihydrochloride] | 82.2% | 103% | – |
| COc1cccc2c1C(=O)c1c(O)c3c(c(O)c1C2=O)C[C@@](O)(C(=O)CO)C[C@@H]3O[C@H]1C[C@H](N)[C@@H](O)[C@H](C)O1 [Epirubicin hydrochloride] | 78.6% | 87.9% | – |
| C[C@]1(Cn2ccnn2)[C@H](C(=O)O)N2C(=O)C[C@H]2S1(=O)=O [Tazobactam] | 78.3% | 87.9% | – |
| CC1CCc2c(N3CCC(O)CC3)c(F)cc3c(=O)c(C(=O)O)cn1c23 (centres unmarked) [Nadifloxacin] | 98.2% | 113% | – |
| Cc1cc(C(=O)NNCc2ccccc2)no1 [Isocarboxazid] | 76.1% | 58% | – |
| CC(C)(Sc1cc(C(C)(C)C)c(O)c(C(C)(C)C)c1)Sc1cc(C(C)(C)C)c(O)c(C(C)(C)C)c1 [Probucol] | 73.5% | 70% | – |
| Nc1ccc(S(N)(=O)=O)cc1 [Sulfanilamide] | 69.5% | 108% | – |
| O=C1CCC(N2C(=O)c3ccccc3C2=O)C(=O)N1 (centres unmarked) [Thalidomide] | 85.3% | 122% | – |
| CC(N/C(=N\C#N)Nc1ccncc1)C(C)(C)C (centres unmarked) [Pinacidil] | 59.9% | 33.5% | – |
| COC(=O)[C@H]1[C@H]2C[C@@H]3c4[nH]c5cc(OC)ccc5c4CCN3C[C@H]2C[C@@H](OC(=O)c2cc(OC)c(OC)c(OC)c2)[C@@H]1OC [Reserpine] | 71.6% | 118% | – |
| C[N+](C)(C)CCCCCCCCCC[N+](C)(C)C [Decamethonium bromide] | – | 56.7% | remaining activity at 10 µM (human NTCP [1]; [5]): 104% |

Where a name gives a salt, the structure may show the parent alone. Read-outs that look alike come from different tables or passages of the source.
